For four molecules, growth inhibition call results are on record in the antibiotic and cytotoxicity screens of Wong et al. (2023).

Molecules are shown by their SMILES. This is one part of the list.

This experiment relates to S. aureus RN4220. The experiment can be described thus: growth inhibition call (relative growth <= 0.2). Conditions: 50 µM.
Take `O=C(O)CCCN1C(=O)c2cccc3cccc(c23)C1=O`: the growth inhibition call was “inactive”.

On to `CC(C)NC(=O)Nc1ccc2c(c1)C(=O)N([C@@H](C)CO)C[C@H](C)[C@@H](CN(C)CC1CCCCC1)OCCCC[C@@H](C)O2`, for which the growth inhibition call is “inactive”.

In the case of `CCCCCCCCCCCCCCSCC(=O)O`, the growth inhibition call is “inactive”.

Take `C[C@H]1CCCCO[C@H](CN(C)C(=O)Cc2ccccc2)[C@@H](C)CN([C@@H](C)CO)C(=O)c2cc(NS(=O)(=O)c3cccs3)ccc2O1`: the growth inhibition call was “inactive”.
